Read counts are not given, so values of variants with three or more changes are uncertain.
B1: CPEB3 Ribozyme (parent)
chain: UAACAGGGGGCCACAGCAGAAGCGUUCACGUCGCAGCCCCUGUCAGAUUCUGGUGAAUCUGCGAAUUCUGCUGUAUAUCUC

Variants of: B1
Assay: self-cleavage, relative activity (ratio to wild type); higher = more cleavage; in vitro, sequencing
Summary of the method: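 CPEB3 self-cleaving ribozyme mutant libraries were made by rounds of error-prone PCR, barcoded, and transcribed in vitro with T7 RNA polymerase for 5 hours at 37°C. Cleavage occurred during transcription and a 15 min DNase I step before EDTA stop. RNAs were reverse transcribed with template switching and Illumina-sequenced, with DNA sequencing mapping barcodes to variants. Relative activity is the variant's cleaved/total read fraction divided by wild type's (minimum 5 reads), averaged across three batches.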

Variant	self-cleavage
U49A U54G C71G U78C	0.18
U48C U60A A64G	0.26
A47U A57G U66C	0.15
U49A U60A U72C U80A	0.2
U49A A57G U69A	0.19
U48C U51A U72A U80C	0.27
A47G G55C U67C U74A	0.15
U49C A57G U58A U67A U72C	0.08
A47G U51G U67C U76A	0.2
U49A U66C U78C	0.15
U48C A56U U58C C59G	0.14
U49A U72C U74A	1.22
U48C A65G U76C	0.17
U49C G53A U80C	0.41
A47G U49C G55A A65G U67C	0.05
A47G U49C U51A	0.31
U48C U51C U72A U74G	0.47
A47G U51A G70C	0.22
A47G U48C U66C	0.11
A47G U51C A65G	0.41
A47U A57G A64G U72C U74C	0.39
U48C U49G A64U	0.18
U49C A56G A65G	0.31
U49C G55U U72C	0.2

Variant	self-cleavage
U49A U67C A77U U78C C79U	0.21
U48C A65U U66C	0.17
U48C U60C U72A	0.16
U49C U51A G53C U66C U72A	0.09
U49A A56U U80A	1.06
U48C U51A C62U U67C U74C U78C	0.17
A47G U67C U72A	0.17
A47U U67A A77U	0.28
U48C U67C C71A	0.27
A47G U66C A77U U78A	0.49
A47U A57G A64U G73A	0.23
U49C A56G A75G U78A	1.06
U49A G52A A56U	1.09
A47G U49A U60A	0.16
U48C C50U U72A	0.3
A47G U54C A65G	0.36
U49A U69A U78A C81U	0.32
U49A U51A C71G	0.2
U48C A64U U80C	0.17
U49A U67A U78C	0.23
U48C A56G U76C U80A	0.59
A47G U67C U76A	0.3
U48A C50A U69G U74A U80A	0.07
U49C A56G A64U	0.3

Variant	self-cleavage
U49A U58A U60A U72C	0.15
U49C A56G A64G U67A U69A	0.07
A47G U54C U58A U69A A77C	0.16
U48C U66C U74A	0.19
U48A U54G U72A U80G	0.39
U48G A64G U67C	0.32
U48C U54G U69C	0.17
A47G G61C U69C A77C	0.29
U48C G52A A57G A64G	1.12
U48C U49A U51A	0.21
U48C U51C U76C U80A	0.87
A47G U48C U60A	0.34
A47G U48C C62U U72A	0.1
U49C U51A C59G A64G	0.16
U48A U66C U67A	0.11
A47G U58C U60A U66C	0.14
U48C A56U U69A	0.27
U48A U58A U80C	0.27
U49C C62A U72G U78C	0.15
A47U U54A A64G	0.27
U48C U67A U69C U72A A75U	0.14
U48C U54A U74C U80C	0.85
U48C G63A A64U U69C U72G U76A	0.25
U48C A65G U66C U78C	0.15

Variant	self-cleavage
U48C U49A U78C	0.25
U48C A64G U80C	0.42
U48C A56U A64G A65G	0.06
U48C G55U U67C U76C	0.15
U49C G53U U60A G63U	0.12
U48C U51A U80C	0.45
U48A A64U U69A	0.06
U49A A57G A65G U69A	0.23
A47G U74A U80C	1.22
A47G U48C U69C	0.16
U49C U51A U76A	0.51
U48C U58C U78C	0.17
U48C U58C U78A	0.22
U49A A56G U67C U72C U80C	0.16
A47G U69C U78C U80C	0.43
U49C A57U G61A U80A	0.16
U48C U66C A77U	0.13
A47G U54C U76C A77G	0.8
U48C A57G U60C	0.92
U49A U67C U69A U76C	0.47
U48C A57G U76C	1.19
A47U U49G A64U	0.18
U49A U51C C62G	0.14
U49A U60C U69A	0.18

Variant	self-cleavage
A47U U51C U60C U76C	0
U49C A57U U76C U78C	0.18
U48A U67A A75G	0.17
U48C U54A U67A A77G	0.26
U49A A64G C81U	0.63
U48C U58G U78C	0.25
U48A U51A G63U A65G U76A	0.17
A47G U60A U72A U78C	0.21
U49C A56G U72C U80C	1.28
A47G U51C U58C U60C U72C U76G	0.39
U49C G55A A56U A64U A77G	0.07
U49A A57G A65U	0.09
A47U U48C A64G	0.16
A47U U48C U60A U69C U76C	0.15
U49A U60C U67C	0.41
U48C A56G U76A	0.39
U49C U51A A64G U78A U80A	0.34
U48C C79U U80A	0.92
U48A U60A U67C U80G	0.1
U49C G53U U72A	0.36
A47U U48C U51C U54C A75G	0.17
U48C U54C U60G	0.13
U49A U54A A57G A65G	0.1
U48C A65G U66C	0.21

Variant	self-cleavage
U49A U51C A57U A64U	0.39
U48C G61C U78C	0.12
U49C G52C A65G U66C U76C	0.26
A47U A65G U76C	0.12
U48C U49A A57G	0.94
A47G U58C A64G	0.71
A47U G55C A56U U60C	0.17
U49C U51C U69C U78C U80C	0.13
A47G U69A C79A	0.91
U48C U49C G53A U60A U66C U80C	0.1
A47U U49C U54C	0.23
A47G U48C U54C U67C	0.11
U48C U60C U78C	0.35
U48A U60A U74C	0.33
U48C U49A U51A U72C	0.54
A47G U60C A64G U72C	0.38
U48A C59U U66C	0.16
A47G U69A U78A	0.85
U49C A56G U67A U69A A77U U78C	0.53
A47G U60G U67C U74C U80C	0.22
A47U U49C U69C	0.28
A47G G63U U67G A75U U78C	0.17
U49C U51C A77G	0.25
U49C G52A A56U U74C A75U	1.04

Variant	self-cleavage
U48C A65G U69C	0.15
U48C U51C U74A	0.94
U48C G61C A64G U80A	0.24
U48C G53A U78C	0.82
U48C U66C G70A	0.14
U48A A57G U58A	0.17
U48C U49C U58C	0.1
A47G U60C U78A U80C	0.19
U49C U51C U54C U60C	0.05
U49A U60C G63A A64C	0.13
U49A U51A U72C	0.51
A47G U49C A64U	0.23
U49C U54A A64U	0.1
U48C U69C U76G	0.39
A47G U51C A56U U60C U69C U76C	0.13
U49A U51A U54C C62G	0.19
U48A A57C U72A	0.39
U49C G52A A65G U72C	0.24
U48A A57G U67C U74A	0.14
U48C A56G U67A U80C	0.16
U48C A56G U67G	0.2
U48C U49C U72A U78A	0.65
U49C U51A C81U	0.63
